Assay results: the BET-seq Pho4 binding data (Le et al. 2018)
The other results are listed elsewhere or left out. These are noisy estimates, calculated here from bound and input reads.

Biological target: T1, Pho4 (S. cerevisiae) (UniProt P07270)
T1 sequence: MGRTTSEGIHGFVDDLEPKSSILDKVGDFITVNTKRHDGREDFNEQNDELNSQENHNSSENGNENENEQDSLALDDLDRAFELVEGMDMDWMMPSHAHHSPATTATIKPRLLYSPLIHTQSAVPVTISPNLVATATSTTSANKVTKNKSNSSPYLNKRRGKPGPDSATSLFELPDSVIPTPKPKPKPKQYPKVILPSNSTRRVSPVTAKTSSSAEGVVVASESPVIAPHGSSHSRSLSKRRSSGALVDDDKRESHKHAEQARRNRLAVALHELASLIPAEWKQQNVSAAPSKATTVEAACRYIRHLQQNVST
Test: relative binding free energy (BET-seq); higher = weaker binding
Details: reference: library average

Sequence	relative binding free energy [kJ/mol]
GGGACCACGTGGTTGT	0.0418
TGTTGCACGTGGCAAA	0
TGGTACACGTGCTGAG	0.126
AGGCGCACGTGGCGGC	-0.586
ATAGGCACGTGAGAGC	0.962
TGCGTCACGTGGAATG	0.335
TATCGCACGTGGGAGA	-0.418
AAAGGCACGTGTGCTA	0.0418
TGGAGCACGTGAGATT	1.17
AAGTGCACGTGGGGTT	-0.962
TTCATCACGTGGGGCG	-0.418
GGCGACACGTGGTTGA	0.669
ACTGGCACGTGCTTGG	-0.46
ATTGTCACGTGCTGGT	0.0418
AGCAACACGTGGGTTG	-0.92
ACTGTCACGTGGGAAT	0.795
TAGGGCACGTGTTCAT	-1.21
TTGTTCACGTGGGGGC	0.669
ATTGACACGTGTAAGG	0.753
TGTAGCACGTGGTCGA	-0.209
AGGGACACGTGTGTTC	0.251
AAAGTCACGTGTGAAT	0.628
GTCTGCACGTGGAGGC	0.502
ATAGTCACGTGATATA	1.09
GTCGACACGTGTGTTG	0.209

Sequence	relative binding free energy [kJ/mol]
TTTTGCACGTGCGAAG	-0.293
TGCGGCACGTGAGTTT	0.544
CGCGTCACGTGGGGGC	-0.251
GGAAGCACGTGTGGGG	-0.711
GGAGTCACGTGTTAAT	0.586
GATATCACGTGTGGCT	0.502
TTTGTCACGTGACGGA	0.586
ACTGACACGTGGGGAG	-0.377
TGTCGCACGTGAGGCT	0.586
CAAGTCACGTGTGTTG	0.628
ATCGTCACGTGTGGCT	0.293
GGGTTCACGTGCGCGG	0.92
ACGGTCACGTGAAGGT	1.42
TGTGGCACGTGCAGTC	-0.46
AAGATCACGTGTAATT	1.67
GGTGGCACGTGCATTA	-0.0837
CGTGTCACGTGAGGCG	1.09
AAGGTCACGTGGGATA	-0.46
ATCAGCACGTGTATGG	0.126
TTTATCACGTGATATT	0.586
GGGGTCACGTGCACGG	0
TTGTACACGTGGGGAG	-0.0418
ATCGGCACGTGTTATG	-0.293
ATATTCACGTGTTTTA	0.711
GTGTTCACGTGGTAGG	0.837

Sequence	relative binding free energy [kJ/mol]
TGTTCCACGTGGTTGC	0
GTTCACACGTGTAATG	0.795
TCGAGCACGTGGTCTG	-0.628
CTTCTCACGTGTAGGG	1.09
TGTCGCACGTGCTTGG	-0.92
ACAGGCACGTGCAGGT	-0.126
GTGGGCACGTGTCGGG	0.628
AGTAGCACGTGAGGCT	0.377
AGTCTCACGTGAGCGG	1.38
GCAGCCACGTGGGGGT	-0.837
GGTGTCACGTGTTATT	0.126
TTTTCCACGTGTATGT	0.0418
TTTGACACGTGACTTT	0.628
TCGTTCACGTGGACTT	2.13
GGTTTCACGTGGAATA	1.67
GGATTCACGTGGGATT	0.795
CGGGTCACGTGAGATA	1.38
ACTTGCACGTGAGGGA	0.669
ATTAGCACGTGCTGTT	-0.377
AGGAACACGTGGAGTG	-0.418
TATCTCACGTGAAGGG	1.26
GATGTCACGTGAGTAG	1.51
GGGTCCACGTGCGGTT	-0.418
AGTATCACGTGAGGGG	1.34
ATGGACACGTGCGTAG	-0.167

Sequence	relative binding free energy [kJ/mol]
AAATTCACGTGGGGTT	0.669
GAATACACGTGGTCGG	0
TCTAGCACGTGATTAT	0.92
AGCTTCACGTGCTGGG	0.879
TCGTACACGTGTTTTT	0.962
AATAACACGTGTTGTG	0
TGGTTCACGTGTGTGA	1.38
GTTGGCACGTGCAGGA	-0.502
TCGTGCACGTGTAGGC	0
ATTAACACGTGGTCTT	-0.669
GTTAGCACGTGCGGGA	-0.544
AGTGGCACGTGAGAAA	0.586
AGAATCACGTGAGGAG	1.55
GCTAACACGTGTTGTG	-0.251
TGATTCACGTGAATGT	1.42
AAATTCACGTGTTTTA	0.628
GTGTTCACGTGATGGA	1.92
TGACTCACGTGTGTTT	0.92
ATCGGCACGTGCATGT	-0.0418
TTTAGCACGTGATTAA	-0.335
ATTGCCACGTGGTTTT	-0.544
AGCGGCACGTGTGTAT	-0.335
AGTGTCACGTGGGTAA	-0.377
TTGGCCACGTGGGTTG	-0.544
TTTCTCACGTGGTTTA	0.628

Sequence	relative binding free energy [kJ/mol]
TCAGTCACGTGATGTT	0.92
TCTGTCACGTGACGTT	0.753
TTCTTCACGTGAGATG	1.05
GGACACACGTGTGTGT	0.586
TTGGGCACGTGCGAGA	-0.418
GCTGCCACGTGGGTGT	-1.21
ATGTGCACGTGTGCTA	-0.586
TTTGGCACGTGTGAGA	-0.0837
GTAGACACGTGTATTT	0.0837
TTTTTCACGTGTTCGA	1.34
GTTAACACGTGATGGT	1
AGTGGCACGTGGGGCT	-1.13
GGAGGCACGTGCGGTT	-0.335
AGCGCCACGTGTGTTG	0.0418
TCTTGCACGTGGGAGC	-0.0837
TTCGACACGTGTTTTA	0.46
GGAGTCACGTGCGCGT	0.126
ATGGACACGTGCTAGG	-0.167
AAGGACACGTGAATGG	1.17
GTTGTCACGTGAAGCA	1.59
AGATGCACGTGTTGGC	0.0837
TGTATCACGTGTCGGA	0.586
GAGTTCACGTGGCTGG	1.59
GGAGTCACGTGGTTAT	0.669
TTTCTCACGTGTATGG	0.879

Sequence	relative binding free energy [kJ/mol]
GGTAGCACGTGATCGG	0.126
TCAAACACGTGGGTGG	-0.46
TGGGGCACGTGCACTG	-0.586
ATGTGCACGTGACGAG	0.586
CCGAGCACGTGGTGTG	-0.669
AGTAGCACGTGTTGAT	-0.628
GGGCGCACGTGTTTGC	-0.0418
GTAAGCACGTGGTGTA	-1.05
GATAGCACGTGAGTTG	0.879
GGTGACACGTGGGACA	0.0837
TTGACCACGTGATGGT	0.544
TGGATCACGTGAGGCA	1.13
AGCGGCACGTGGTTGT	-0.335
GTAATCACGTGCAGTT	0.418
ATGATCACGTGTTACG	1.17
GGATTCACGTGATGTG	1.67
GGCTTCACGTGGGTTC	1.38
TAGGTCACGTGTGTAC	0.669
TTTATCACGTGCGGCT	0.962
AAGTTCACGTGATTGA	1.3
TACATCACGTGTGGGG	0.753
